Test results: the supplement of paper PMC11417369
This is one part of the list.

These sequences were tested on PfSIP2 AP2 domain 1 (GST-tagged) (assay: gcPBM binding intensity (ln(normalized median fluorescence intensity)); higher = stronger DNA binding).
Summary of the method: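 Binding intensity is defined as the maximum Masliner-normalised natural-log median intensity across replicate spots for either probe orientation. It was measured on an Agilent 4 × 180k array of primer-extended double-stranded 36-bp intergenic genomic probes and negative controls, to which GST-tagged P. falciparum DNA-binding domains made in E. coli were applied for 1 h in 1× PBS with 1% milk, 0.2 mg/ml BSA, 0.5% salmon testes DNA and 0.03% Triton X-100. Detection was by Alexa488 anti-GST antibody and scanning at 488 nm.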

Sequence | gcPBM binding intensity (ln)
TGTTTGAATAACAAAAAAAAAAAAAAAATTAAAAAA [CACACA_negctrl_site1332] | 6.79
ATTTTAAATGTTATGCGTACATATTAATCCTACTTA [XGTACX_site1344] | 7.57
TTTTAAAAATCTATATGTACACAATACGTCTATAAA [XGTACX_site5787] | 7.03
AAAAAAAAAAAAAACACACAAACGCTTTTTTTTTTT [CACACA_site686] | 7.26
TATGAAAATGTTCATACACACATAAAAAAAAAAAAA [CACACA_site3236] | 6.91
TACACATACACATACACACGCATAGAAACATACGAA [CACACA_site2137] | 7.29
TTTTAAATATGCAGATGTACATTATAATGTTTTATT [XGTACX_site2079] | 7.07
TACATATTTTTATATACACACAATAATTATTATAAA [CACACA_site1659] | 7.17
GATATGTACTAATACACACACATATAGATTTATATA [CACACA_site6610] | 7.23
TATATTTATTATAACACACACATATATATATTATAT [CACACA_site1061] | 7.29
AGGCATAATTAAAAGTAACAATTATGGAAACGGAGT [GTGCAC_negctrl_site623] | 7.19
TTTATTTATTATTAAAGTACTAAATTATATTATTAT [XGTACX_site2565] | 6.92
AAAAAAAAAAAAAACACACACATGCACCTCATATTA [CACACA_site556] | 11.4
AAAAAAAAAAAAAAATGTACATATAAATAAATATAT [XGTACX_site7248] | 7.15
TAATATCCATATAAAACACACATCAAGGTTGTTAAC [CACACA_site175] | 6.73
ACAACATAGAGGGGCACACACATATATACATAAAAA [CACACA_site6954] | 8.02
TATGTGCACCCATATACACACACAAATACAATGATA [CACACA_site8295] | 12.3
AATTCATATACAAAAAGTACAAACGAAAAATAAAAA [XGTACX_site2900] | 7.09
ATGTTTTATATTATTAATATATATATATATATATAT [CACACA_negctrl_site331] | 9.05
GTTATATAAAAATATTGTACATTCTATATAAAGTCA [XGTACX_site4418] | 6.95
AATCTAATTAAAATCACACATATATTCGTCGTAATA [CACACA_site5855] | 6.71
AAAAAATTAACGAGTGCACACATATTTAGATAAAAT [CACACA_site8958] | 10.6

Sequence | gcPBM binding intensity (ln)
ATATATATATATATAACACACGTGTATTTATCTGTA [CACACA_site5922] | 9.33
ATTCAAAAAAAATCAACACACAGTTACATAGCTCAA [CACACA_site2234] | 6.91
ATTCCATAAGTAAACACACAAATGCCAAAATTTTAT [CACACA_site7491] | 7.12
ATATATATATATATGTGTACACAAAAAATATTATAT [XGTACX_site5741] | 9.27
GCACATATATATGAAACACACATGGAAACATCTCTT [CACACA_site3966] | 7.06
ATGGAAAAAAAGCATTGTACATTTAAAGAAAAACAG [XGTACX_site6639] | 7.42
TATTATATTTGTATGTGTACTTATATGGTTGTAATA [XGTACX_site4548] | 7.2
AACGAAAACACTACGTGTACCAAATGTCCTGCCAAC [XGTACX_site5735] | 6.67
AAATATTATCAAACATAAATTATTTTTATCCGTATA [CACACA_negctrl_site771] | 6.64
AATGTATATTATTGCACACATATATAAAATTATGCT [CACACA_site1096] | 7.39
ATATATGTTAATAATTGTACAAATCGATAATATATA [XGTACX_site5076] | 7.04
TCTCTAATTTTTAATACACACAAATAAATAAATAAA [CACACA_site216] | 7.14
AAAAAAATATAGATCTGTACATATATAAATATATGT [XGTACX_site511] | 6.91
ATTTGTGAATATATTCGGTGAACTTTGTTAACACAT [XGTACX_negctrl_site445] | 6.8
ATCTCTATGATATATACACACAAATATACAAAAAAA [CACACA_site6605] | 6.97
GTATGAAATTATAATAGTACATATAAATAAAAAAAA [XGTACX_site8955] | 6.89
TATATATAATATATATATATGGAAATTCTTTTAAAT [XGTACX_negctrl_site50] | 7.64
TGTATTATATGTAAATGTACATTTAATATTTTATAT [XGTACX_site4461] | 7.13
ATATAAGGATAACCTAGTACATATTATATGAAACAA [XGTACX_site8459] | 6.93
TACGGTAAATAGTGTTGTACGATACAATTGTTTTCT [XGTACX_site8118] | 6.66
AAGGGGAAAAAAAAAAGTACACAAACATAGGATAAT [XGTACX_site377] | 7.43
CAATTAAAATGCAACGGTACACATAAAAAAAATAAA [XGTACX_site6216] | 6.97

Sequence | gcPBM binding intensity (ln)
AAAATAAATAAATAAATATATATATATATATATATA [TGCATGCA_negctrl_site558] | 9.76
CCACAAGTATATAGTAGTACAATTTTTTTCTCTTTA [XGTACX_site4403] | 6.9
TTTTTTTTATTTTGTTGTACGCTTATTTGTATATAT [XGTACX_site7325] | 7.54
TTTATGTGTTATAAATGTACATAATATAATTCGTAT [XGTACX_site3845] | 7.01
TTATCTATAAATACGAGTACGCAAAATCATATAATA [XGTACX_site2447] | 7.03
TTTTTATAAAATTTTATGAGCTCGGAAAAAATAAAC [GTGCAC_negctrl_site637] | 7.66
TTTTAATATTAAGATGTCTTTTACGTTTATTTTGTA [CACACA_negctrl_site765] | 6.92
ATTTACGCGCTTATTACACACACATACAAATAAGGA [CACACA_site9157] | 7.33
TAATTATTTGCCCTTACTCTGAACATTCGGAATTTA [CACACA_negctrl_site1278] | 6.91
ATCTGCATATATATATGTACATATTTTAGAATGCAC [XGTACX_site708] | 9.36
TTCTTTTTAAATTACACACACATATAAATATGTATA [CACACA_site7618] | 7.37
TAATAAATAATGGTTACACACAAAATATAAAACTTA [CACACA_site3544] | 6.86
AATTATAAATCTTGCACACAAAAAAAATAATAAAAA [CACACA_site2434] | 7.15
TAAACACATATATAGACATGCAACTAGTTTTTATAA [TGCATGCA_site474] | 6.96
AAATCTTTGTGTGGATGTACTTTTATAAAAAAGAAT [XGTACX_site3830] | 7.11
TCTGTTCTTTTTTAATGTACAAGAAATATAAAATTC [XGTACX_site3600] | 7.19
AATTTTTAGTATATAACATAAAATAAAATAAAATAA [GTGCAC_negctrl_site696] | 7.24
TTATTTTTTTTTTTTTGTACACAATTTGACACATTA [XGTACX_site7983] | 7.33
TTTATTTAATTATGTTGTACATGTAGGATTTATTTT [XGTACX_site7078] | 6.98
AAAAAGGAAATAATAACACACATTAATAATTATAAA [CACACA_site3401] | 6.67
TAAAAAGTTATATTCACACACATACACATATAAATA [CACACA_site6398] | 6.88
GTTAAAAAAAGGAGAGATCTCACACAAATATATATA [GTGCAC_negctrl_site117] | 7.28

Sequence | gcPBM binding intensity (ln)
AATATATATGAAAAAAGTACTCAAGGAATAAAAAAA [XGTACX_site7720] | 6.68
ATGATAAATATAAGTTGTACATATATCTATGTGCAT [XGTACX_site6010] | 7.02
CATAAATACTATATATGTACGTAATTTTTAAAACAT [XGTACX_site7710] | 7.3
CATTTAATAATAACAAGTACACAAAGATGTATAACA [XGTACX_site8315] | 7.28
GGGTGCCAAATTAGCACACACATATATACCTGAATT [CACACA_site5551] | 8.5
TTACAAATAATTTGTTGTACGCTTTTTTTCTTTTTT [XGTACX_site7199] | 7.82
TATATATATATATATGTGCGCATTACTTTAAGAATA | 9.3
TTTTTTTTTATTTGTTGTACGAGGTTTTAAAATTTT [XGTACX_site106] | 7.15
ACAATATCTAGATACACACACATATCTCTCAATCTA [CACACA_site656] | 7.04
TATAATATTCTATATGCATGTACACCATTCTTTATT [TGCATGCA_site688] | 7.23
TATTGTTATCTTTTATGTACTTAAAAAAATAAATTT [XGTACX_site4233] | 7.24
AAAAAGGTTATTGGTACACACATATGTATATAAATA [CACACA_site6402] | 7.07
TAATAAAACATATATACACACATTATATATACATAT [CACACA_site8495] | 6.98
GTAGGCATTAAAAAATGTACAAAATATTATGAATTG [XGTACX_site1615] | 6.85
TATAATATATTCATGTGTACATATATTTCGAACATA [XGTACX_site1754] | 7.23
ATAAATATTGCGTGCACACACATAATATTTATATAT [CACACA_site7136] | 8.7
CGAAAAATATGTATGAGTACTTATATTTAAACTATA [XGTACX_site1911] | 6.86
CATTCCTATTATTATACACACAAATTAAGAATTCAA [CACACA_site787] | 6.98
ATGTCATAAAAACATATACACACTTGAAATATAAAA [CACACA_site2329] | 6.94
ATTTTTTTGTTAATTTGTACATAAAATTTTATTTTA [XGTACX_site7007] | 7.25
ATATTTATTTTATAAAGTACTAAAAAATATATTATA [XGTACX_site8522] | 6.9
AAAAAAAAAAAAAAAACACACAAACGCTTTTTTTTT [CACACA_site4545] | 7.54
